From PMC4336329 (PLoS ONE, 2015)
The whole screen tested about 310,000 compounds, of which about 14,000 (4.5%) showed an effect of 50% or more. The effect is printed as a negative number. The list shows a part of the results.

target: human ether-à-go-go-related gene (hERG) potassium channel (human, UniProt Q12809); assay: primary screen, population patch clamp on CHO cells stably expressing hERG
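Further: peak tail current of the secondary pulse compared with the same well before compound.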

human ether-à-go-go-related gene (hERG) potassium channel, sequence (Q12809 whole entry, looked up): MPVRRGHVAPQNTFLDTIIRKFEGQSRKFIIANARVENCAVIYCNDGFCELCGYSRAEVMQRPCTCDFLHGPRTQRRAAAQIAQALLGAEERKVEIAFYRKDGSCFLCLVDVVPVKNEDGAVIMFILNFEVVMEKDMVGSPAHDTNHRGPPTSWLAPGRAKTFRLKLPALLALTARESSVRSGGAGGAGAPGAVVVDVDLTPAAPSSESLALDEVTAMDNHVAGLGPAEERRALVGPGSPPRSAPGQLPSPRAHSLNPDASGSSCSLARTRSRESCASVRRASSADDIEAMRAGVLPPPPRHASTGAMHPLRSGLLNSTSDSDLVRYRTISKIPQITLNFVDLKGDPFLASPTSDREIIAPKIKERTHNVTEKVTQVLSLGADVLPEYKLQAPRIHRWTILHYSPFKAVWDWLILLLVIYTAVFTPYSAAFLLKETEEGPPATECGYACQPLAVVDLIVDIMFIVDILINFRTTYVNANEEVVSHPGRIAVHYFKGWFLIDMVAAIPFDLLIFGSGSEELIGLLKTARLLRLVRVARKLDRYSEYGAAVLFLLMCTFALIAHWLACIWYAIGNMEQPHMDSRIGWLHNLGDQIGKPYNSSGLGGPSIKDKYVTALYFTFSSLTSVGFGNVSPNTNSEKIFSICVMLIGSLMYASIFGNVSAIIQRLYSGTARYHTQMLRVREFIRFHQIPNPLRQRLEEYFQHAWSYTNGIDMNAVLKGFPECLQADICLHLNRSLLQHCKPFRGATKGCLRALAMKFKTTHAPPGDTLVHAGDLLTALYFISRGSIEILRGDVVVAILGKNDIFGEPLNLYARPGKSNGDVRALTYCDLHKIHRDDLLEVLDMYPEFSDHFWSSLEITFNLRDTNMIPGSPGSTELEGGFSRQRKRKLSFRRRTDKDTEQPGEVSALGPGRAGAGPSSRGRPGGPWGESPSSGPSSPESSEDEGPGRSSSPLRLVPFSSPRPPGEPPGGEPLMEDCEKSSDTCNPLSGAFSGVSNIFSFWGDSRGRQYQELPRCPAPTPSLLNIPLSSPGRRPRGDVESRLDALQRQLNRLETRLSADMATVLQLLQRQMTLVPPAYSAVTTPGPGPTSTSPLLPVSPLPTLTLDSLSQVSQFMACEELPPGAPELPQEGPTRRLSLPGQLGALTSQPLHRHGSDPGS

SMILES | hERG current change (%, negative = inhibition) at 10uM [%]
Cc1nc2nc(NC(=O)c3ccco3)[nH]n2c(=O)c1C | 7.23
CC1CCC(C(C)C)C(OC(=O)COC(=O)c2cc(O)ccc2N)C1 (stereo not shown) | 12.9
Cc1nn(-c2ccccc2)c2c1C(=O)N(c1ccccc1)C(=O)C(C)(C)C2 | -21.1
COc1ccccc1C(=O)NC(=O)COC(=O)CCNS(=O)(=O)c1ccccc1 | -29.8
C=CCN(CC=C)C(=O)C1CCN(S(=O)(=O)c2ccc(-n3cnnn3)cc2)CC1 | -54.4
Cc1ccsc1/C=N/n1c(COc2ccccc2)n[nH]c1=S | 11.7
Cc1ncsc1C(=O)Nc1nc2c(s1)CCCC2 | 6.68
O=C(CNC(=O)c1ccco1)OCc1cccc(Cl)c1 | -7.25
O=C1C=C(c2cccc3c2sc2ccccc23)C[C@@H](c2ccc(F)cc2)C1 | 19.6
Cc1ccc(C2=NS(=O)(=O)N(C)C(C(=O)N3CCOCC3)=C2)cc1 | -16.5
COC(=O)CCn1c(C)cc(C(=O)COc2ccccc2C(N)=O)c1C | 8.27
COc1ccccc1N1CCN(C(=O)c2noc(C)c2[N+](=O)[O-])CC1 | 21.8
O=C(O)c1cccc(NC(=O)C2C3C=CC(C3)C2C(=O)OCC(F)(F)C(F)F)c1 (stereo not shown) | 11.5
CC(=O)c1c(C)oc2ccc(NS(=O)(=O)c3ccc(C(=O)O)cc3)cc12 | 19.3
Cc1cccn2c(=O)c(C=Nc3ccc(Cl)cc3)c(NCCO)nc12 | 7.51
O=C(CN1C(=O)NC(Cc2ccccc2)C1=O)NC(=O)NC1CCCCC1 (stereo not shown) | 7.31
CCOc1ccccc1OCc1nn2c(-c3ccc(C)cc3)nnc2s1 | 6.13
O=C(N/N=C/C(Br)=C/c1ccccc1)c1cnccn1 | -22.3
Cc1cc(C)n(CC(O)COc2ccc(Cl)cc2)n1 (stereo not shown) | 16.8
CCC(=O)NC(Nc1cc(C)ccn1)(C(F)(F)F)C(F)(F)F | 12.7
CCC(=O)NC(=S)Nc1ccc(S(=O)(=O)N2CCN(C)CC2)cc1 | -13.3
CC(OC(=O)c1cccc(S(=O)(=O)Nc2cccc(C(F)(F)F)c2)c1)C(=O)Nc1ccc2c(c1)OCCO2 (stereo not shown) | -4.41

SMILES | hERG current change (%, negative = inhibition) at 10uM [%]
Cc1ccc(C)c(-c2cc(C(=O)NCc3cccs3)c3ccccc3n2)c1 | -1.31
Cc1nn(C)c(=O)n1-c1ccc(Oc2ccccc2)cc1 | 14.4
COc1ccc(CNC(=O)CCC(=O)N2C[C@H]3C[C@H](C2)c2cccc(=O)n2C3)cc1OC | 11
O=C(Nc1ccc(CN2CCCCC2)cc1)c1sc2ccccc2c1Cl | -41.2
N=c1c(S(=O)(=O)c2ccccc2)cc2c(=O)n3ccccc3nc2n1Cc1ccco1 | -18.9
COc1ccc(C2=NCCc3cc(OC)c(OC)cc32)cc1OC | -23.6
Cc1cc(=O)[nH]c(COc2ccccc2)n1 | 17.2
Cc1cc(C)cc(-c2nnc(SCC(=O)c3ccc4c(c3)OCCO4)o2)c1 | 14.8
C=CCOc1ccc(C2NC(=S)NC3=C2CCc2ccccc23)cc1 (stereo not shown) | -18.2
O=S(=O)(Nc1cccc(-c2cn3cccnc3n2)c1)c1ccc(Cl)cc1 | 16.4
CC(C)(C)c1cc(C(=O)N/N=C/c2ccc(F)cc2)n(-c2ccccc2)n1 | -23.5
COc1ccc(OCC(=O)N2CCN(C(=O)c3ccco3)CC2)cc1 | -32.3
CC1CC(=O)N(CC(=O)NCc2ccccc2)c2ccccc2S1(=O)=O (stereo not shown) | 9.63
Cc1[nH]n(-c2cccc3ccccc23)c(=O)c1C=Nc1ccc2[nH]c(=O)[nH]c2c1 | 6.05
O=S(=O)(c1ccc(Cl)cc1)N1CCN2CCCC2C1 (stereo not shown) | -6.01
CCOC(=O)c1cc(C(=O)Nc2ccc(S(=O)(=O)Nc3ccc(OC)cc3)cc2)nn1C | 22.6
Cc1ccc2c(c1)COc1c3ccc(C(=O)N4CCCCC4)cc3nn1-2 | 0.465
O=C(CCN1C(=O)/C(=C/c2ccc(F)cc2)SC1=S)NNC(=O)c1cccnc1 | -3.44
Cc1nn(C)c(N)c1-c1ccccc1 | 25.4
O=C(C[n+]1ccc2ccccc2c1)c1ccccc1.[Br-] | -22.5
O=C1/C(=C\c2ccc([N+](=O)[O-])cc2)CCc2ccccc21 | -6.6
O=C1c2ccc3c4c(ccc(c24)C(=O)N1c1cccc(O)c1)CC3 | 4.49

SMILES | hERG current change (%, negative = inhibition) at 10uM [%]
Cc1cc2c(cc1S(=O)(=O)N1CCN(c3cccc(C(F)(F)F)c3)CC1)OCC(=O)N2 | 14.8
O=C(CC1C(=O)NCCN1Cc1ccccn1)NCCc1ccccc1F (stereo not shown) | 3.14
CCSc1nc2ccccc2n1C(=O)/C=C/c1ccc(OC)c(OC)c1 | 0.513
Cc1ccc(S(=O)(=O)NCc2cccnc2)c(C)c1 | 12
CN(Cc1c(C(=O)N/N=C/c2ccc(F)cc2)nnn1-c1nonc1N)C1CCCCC1 | 8.21
CCN(C1CCCCC1)S(=O)(=O)c1cn(C)c(=O)n(C)c1=O | 4.78
O=C(Nc1ccc(S(=O)(=O)C(F)F)cc1)c1ccc2c(=O)n3c(nc2c1)CCC3 | 24.1
COc1cc(C(C(=O)NC2CCCC2)N(C(=O)Cc2cccs2)C2CC2)cc(OC)c1OC (stereo not shown) | 13.6
CCc1cccc(Oc2nn[nH]n2)c1 | -1.49
COc1ccc(-c2nc(CS(=O)(=O)CC(=O)NCc3cccc(F)c3)c(C)o2)cc1 | 7.04
Cc1cccc(C)c1NC(=O)C1(N2C(=O)CC2c2ccccc2)CCCCC1 (stereo not shown) | 6.11
Cc1cc(NC(=O)CCC(=O)N(Cc2cccs2)C(C(=O)NC2CCCC2)c2ccccc2)no1 (stereo not shown) | -28.4
NCCCC[C@H]1CN=C(N)N1CCC12CC3CC(CC(C3)C1)C2 | 14.4
CCn1c(SCC(=O)NC2CCCC2)nnc1C(C)C | 17
CN/N=C/c1ccc(C#N)cc1 | 9.35
CCOc1nc(NCCN2CCOCC2)nc(Nc2ccc(C)cc2)n1 | -65.3
Cc1ccsc1CN(C)C(=O)CN1C(=O)NC2(CCCCC2C)C1=O (stereo not shown) | -6.87
COc1ccc(NC(=O)c2cc(CN3C(=O)c4ccccc4C3=O)ccc2OC)cn1 | 0.475
COc1ccc(NC2CC(=O)N(C)C2=O)cc1 (stereo not shown) | -4.29
COc1cccc(/C=C2\SC(=S)N(NC(=O)c3ccncc3)C2=O)c1 | 6.47
O=C(O)CCCNS(=O)(=O)Cc1ccccc1 | 13.7
COc1ccc(-n2c(C)cc(C(=O)Cn3nc(C(=O)O)c4ccccc4c3=O)c2C)cc1 | -1.43

SMILES | hERG current change (%, negative = inhibition) at 10uM [%]
Cc1cccc(Cn2nc(C(C)(C)C)cc2C(=O)N2CCOCC2)c1 | -9.52
Cc1cc(Cl)ccc1NC(=S)NCCCO | 15.9
CC1CCN(C(=O)c2[nH]cnc2C(=O)NC2CCN(C(=O)OC(C)(C)C)CC2)CC1 | 9.62
O=C(CC(=O)c1ccccc1)Nc1ccc(Cl)cc1 | 17.8
Cc1cc(C)n(CC(=O)n2nc(C)cc2C)n1 | 7.07
COC(=O)[C@@]1(Cc2ccc(F)cc2)[C@H]2c3cc(C(=O)N(C)C)n(CCSCCO)c3C[C@H]2CN1C(=O)c1ccccc1 | -34.4
CCC(=O)Nc1ccc(NC(=O)CSc2nnnn2-c2ccc3c(c2)OCCO3)cc1 | 5
Br.CCn1c(=N)n(CC(=O)c2cccc([N+](=O)[O-])c2)c2ccccc21 | 12.1
CCOC(=O)c1c(-c2ccccc2)csc1N1C(=O)Nc2ccccc2N1O | -3.7
CC1CN(C(=O)CN(C)S(=O)(=O)c2ccc3ccccc3c2)CC(C)O1 (stereo not shown) | -2.51
O=C(Nc1ccc2oc(-c3ccncc3)nc2c1)c1ccc(Br)o1 | 5.42
CCOC(=O)c1c(NC(=O)c2nn(CC)cc2Br)sc(C)c1C | 14.3
O=C(Nc1ccccc1Cl)c1ccccc1Cl | 1.69
Cc1[nH]n(S(=O)(=O)c2ccccc2)c(=O)c1N=Nc1cccc(Cl)c1 | 16.2
COC(C)c1oc2c(C)c3oc(=O)cc(C)c3cc2c1C (stereo not shown) | -0.729
Cl.NCCCCc1cn(CC(=O)N2CCNCC2)nn1 | 11.1
CC(C)Cc1cc(C(=O)Nc2cc(Br)ccc2O)no1 | 1.91
COc1ccccc1C(O)(C(=O)NNc1ccccc1C)c1ccccc1OC | 59.9
CCOC(=O)CCc1c(C)c2ccc(OCC(=O)N3CCOCC3)c(C)c2oc1=O | -34.4
Cc1nnc(NC(=O)C2COc3ccccc3O2)s1 (stereo not shown) | 3.12
NC(=O)c1sc2nc(N3CCCCC3)c3c(c2c1N)CCCC3 | -16.8
Cc1ccc(S(=O)(=O)Nc2ccccc2F)cc1C(=O)OC(C)C(=O)N1CCOCC1 (stereo not shown) | -7.94
